About 2,200 (0.71%) of roughly 310,000 compounds showed an effect of 50% or more. Effects have a minus sign here. The list shows a part of the results.

human ether-à-go-go-related gene (hERG) potassium channel, sequence (Q12809 whole entry, looked up): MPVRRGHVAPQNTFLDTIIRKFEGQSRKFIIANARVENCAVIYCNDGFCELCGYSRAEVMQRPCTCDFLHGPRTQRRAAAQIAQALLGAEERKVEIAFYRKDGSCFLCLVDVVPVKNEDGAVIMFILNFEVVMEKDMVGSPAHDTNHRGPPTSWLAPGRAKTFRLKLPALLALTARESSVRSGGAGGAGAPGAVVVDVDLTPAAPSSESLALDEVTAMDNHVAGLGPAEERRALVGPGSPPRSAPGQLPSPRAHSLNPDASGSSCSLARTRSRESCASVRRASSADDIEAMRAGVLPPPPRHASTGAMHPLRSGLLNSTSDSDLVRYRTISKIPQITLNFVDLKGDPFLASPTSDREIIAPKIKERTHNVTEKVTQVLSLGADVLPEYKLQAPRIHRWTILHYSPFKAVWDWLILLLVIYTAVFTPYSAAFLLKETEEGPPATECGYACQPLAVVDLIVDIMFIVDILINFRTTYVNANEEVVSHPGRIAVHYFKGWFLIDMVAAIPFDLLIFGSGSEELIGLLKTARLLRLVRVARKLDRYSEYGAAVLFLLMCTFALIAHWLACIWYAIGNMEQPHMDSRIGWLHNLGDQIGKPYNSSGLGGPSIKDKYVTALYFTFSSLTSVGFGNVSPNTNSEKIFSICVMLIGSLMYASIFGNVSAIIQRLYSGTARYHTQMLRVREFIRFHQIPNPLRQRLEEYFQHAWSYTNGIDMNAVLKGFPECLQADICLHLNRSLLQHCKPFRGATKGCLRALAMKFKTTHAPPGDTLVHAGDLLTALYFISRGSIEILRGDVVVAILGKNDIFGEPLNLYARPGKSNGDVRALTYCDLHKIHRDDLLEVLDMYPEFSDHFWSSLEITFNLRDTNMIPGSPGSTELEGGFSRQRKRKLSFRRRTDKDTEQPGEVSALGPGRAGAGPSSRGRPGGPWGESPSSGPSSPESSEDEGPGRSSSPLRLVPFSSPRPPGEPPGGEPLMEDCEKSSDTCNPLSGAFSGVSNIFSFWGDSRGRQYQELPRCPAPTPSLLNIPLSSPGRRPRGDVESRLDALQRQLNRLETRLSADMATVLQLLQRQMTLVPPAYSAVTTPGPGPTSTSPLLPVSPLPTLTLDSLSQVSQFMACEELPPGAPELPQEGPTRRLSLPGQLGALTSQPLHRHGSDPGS

In the test the target is human ether-à-go-go-related gene (hERG) potassium channel (human, UniProt Q12809). Nature of the test: primary screen, population patch clamp on CHO cells stably expressing hERG. As for the experimental part:
Briefly, Chinese hamster ovary (CHO) cells stably expressing the hERG channel were dislodged from tissue culture flasks and dispensed into PPC plates. […] During the recording, background leak currents were estimated by a 100 ms step to -80 mV from an initial holding potential of -70 mV and subtracted from the subsequent current measurement. The campaign was conducted in two phases using slight differences in recording protocol. In the first phase, the initial voltage pulse used a 100 ms step to -30 mV from a holding potential of -70 mV, a 2 s conditioning step to +25 mV, and a 2 s test step to -30 mV. During the second phase of the screen, the potential during the conditioning step was raised to +45 mV. In both phases of the campaign, a secondary voltage pulse was applied using the same parameters as the second phase initial pulse. The initial and secondary pulses were applied in the absence of compound, and upon application of 1 μM and 10 μM test concentrations. Small molecule effects on hERG current density were quantified by […].
Turning to `COCCn1c(=NC(=O)C(C)(C)C)sc2cc([N+](=O)[O-])ccc21`, the “hERG current change (%, negative = inhibition) at 1uM” value was 4.88%. With `Cc1cc(C)c(C(N)=O)c(Nc2cccc(Cl)c2C)n1` the figure was 10.9%; with `CCOc1ccc(-n2c(C)nc3cc(C(=O)NCc4ccco4)ccc32)cc1`, -1.02%; with `Cc1ccc(S(=O)(=O)N(c2ccccc2)C2CCS(=O)(=O)C2)cc1` (stereo not shown), 5.92%. `COc1ccc(CCNC(=O)Oc2ccccc2)cc1OC`: the “hERG current change (%, negative = inhibition) at 1uM” value is given as 12.4%. With `O=C(NC1CCCCC1)c1cccc(COCC(F)(F)F)c1` the figure was 5.99%; with `Cc1ccc2cc(C#N)c(N3CCCN(C(=O)c4cnccn4)CC3)nc2c1`, -2.93%; with `Cc1ccc(-c2ccc(=O)n(CC(=O)NCCC(C)C)n2)cc1`, 7.78%. With `CCc1ccccc1NC(=O)COc1ccc(N2CC(C(N)=O)CC2=O)cc1` (stereo not shown), the “hERG current change (%, negative = inhibition) at 1uM” value was 16.7%. With `CCCCCOc1ccc(C(C)(O)C(CN2CCOCC2)c2ccccc2)cc1` (stereo not shown) the figure was -3.26%. As to `CCN(CC)S(=O)(=O)c1ccc(N/N=C(\C)c2ccc(OC)cc2O)nc1`, the “hERG current change (%, negative = inhibition) at 1uM” value was determined as 10.1%. Take `CCOC(=O)C1(CC2CCCCO2)CCN(Cc2nc(C(C)C)cs2)CC1` (stereo not shown): the “hERG current change (%, negative = inhibition) at 1uM” value amounted to 10.2%.

In the case of `CCCCN(c1ccccc1)c1ncnc2nc[nH]c12`, the “hERG current change (%, negative = inhibition) at 1uM” value is reported as -1.81%. The same measure for `Cn1c(N)c(C(=O)COC(=O)C2CCCC2)c(=O)n(C)c1=O`: 6.43%. In the case of `Cc1ncoc1C(=O)Nc1ncc([N+](=O)[O-])s1`, the “hERG current change (%, negative = inhibition) at 1uM” value is 6.64%. As to `COc1ccc(CCNC(=O)CSc2nncn2N)cc1OC`, the “hERG current change (%, negative = inhibition) at 1uM” value came to 12.7%. The same measure for `CCc1ccc(NS(=O)(=O)c2cccs2)cc1`: 3.87%. As for `CCOC(=O)N1CCN(C(=O)c2ccc(Cn3c(=S)[nH]c4cc5c(cc4c3=O)OCO5)cc2)CC1`, the “hERG current change (%, negative = inhibition) at 1uM” value came out at 0.169%. With `O=C(N/C=C\c1ccccc1)NCc1ccc(Cl)cc1Cl` the figure was 10.9%; with `CC(C)(C)c1cc(CSC(=S)NC2CCS(=O)(=O)C2)c(Br)c(C(C)(C)C)c1` (stereo not shown), 8.93%; with `O=C(Nc1cccc(Cl)c1)N1C[C@H]2C[C@@H](C1)c1cccc(=O)n1C2`, 6.71%. The same measure for `COc1ccc(CCNC(=O)c2ccc(=O)[nH]c2)cc1`: 9.9%; for `O=c1cc2c(nn1Cc1ccccc1)-c1ccccc1CC2`: 8.94%. On to `C=CCn1c(SCc2nc3sc(C(=O)O)c(C)c3c(=O)[nH]2)nnc1-c1ccccc1`, for which the “hERG current change (%, negative = inhibition) at 1uM” value came to 2.8%. With `COc1ccc(OC)c2[nH]c(=O)c(CCNC(=O)c3ccc(Br)o3)cc12` the figure was 7.53%; with `COc1cccc(-n2c(=O)c3sccc3n(CC(=O)NC3CCCC3)c2=O)c1`, 11.2%; with `CCOC(=O)C1=C(C)NC(C)=C(C(=O)OCC)C1c1cccs1`, 8.78%. Take `C=CCNS(=O)(=O)CC12CCC(CC1=O)C2(C)C` (stereo not shown): the “hERG current change (%, negative = inhibition) at 1uM” value is reported as 6.81%. With `CCOC(=O)C(=O)C1=C(N2CCOCC2)/C(=C\c2ccc(F)cc2)CC1` the figure was 7.93%; with `Cc1ccc(NC(=O)CN2C(=O)S/C(=C\c3cc(C)n(C)c3C)C2=O)cc1`, 5.99%.

As for `O=C(Nc1c(C(=O)N2CCOCC2)cnn1-c1ccccc1)c1ccc(F)cc1`, the “hERG current change (%, negative = inhibition) at 1uM” value was 12.2%. Consider `Clc1ccc(Cn2ncc3c(N4CCCCC4)ncnc32)c(Cl)c1`, for which the “hERG current change (%, negative = inhibition) at 1uM” value stood at 12.3%. Turning to `Cc1ccc2cc(CN(C(=O)c3cccs3)c3ccccc3)c(=O)[nH]c2c1`, the “hERG current change (%, negative = inhibition) at 1uM” value turned out to be 17.6%. For `O=C(CSc1oc(-c2ccc(F)cc2)nc1S(=O)(=O)c1ccc(F)cc1)NCC1CCCO1` (stereo not shown), the “hERG current change (%, negative = inhibition) at 1uM” value is reported as 17.9%. With `O=C(CCCC(=O)N(CC(=O)NC1CCCC1)c1cccc(F)c1)Nc1ccccn1` the figure was 9.73%.

As for `Cc1sc2nc[nH]c(=O)c2c1-c1ccc(F)cc1`, the “hERG current change (%, negative = inhibition) at 1uM” value was found to be 17.2%.

As for `Cc1cccc(Nc2nc(N)nc(CSc3nccc(C)n3)n2)c1`, the “hERG current change (%, negative = inhibition) at 1uM” value was 10.5%. With `Cc1nc(CNS(=O)(=O)c2cc(F)ccc2F)cs1` the figure was 21.9%; with `CC1CCCCN1CCNC(=O)C1CCCN(S(=O)(=O)c2cccc3nsnc23)C1` (stereo not shown), 8.22%. The same measure for `CO.COC(=O)c1cccc(C(=O)Nc2cnc3ccccc3c2)n1`: 7.29%; for `CCC(=O)N1CCN(c2ccccc2NC(=O)Cc2ccccc2)CC1`: 0.0591%; for `CSc1nnc(-c2cc3c(s2)-c2ccccc2CC3)o1`: 3.5%. As to `COc1ccc(CNC(=O)c2cc(COc3c(F)cccc3F)on2)cc1OC`, the “hERG current change (%, negative = inhibition) at 1uM” value is 7.12%.

For the origin of these results see publication PMC4336329 (PLoS ONE, 2015).
